Reference: PubChem BioAssay AID588342 (National Center for Advancing Translational Sciences (NCATS), 2011)
The whole screen tested about 360,000 compounds, of which about 25,000 (6.9%) were called active. The shares of active, inactive and inconclusive entries below differ from those in the screen. Calls come from the whole dose curve; as a rule, active = well fitted inhibition curve with a large enough effect; inconclusive = small, poorly fitted or top-dose-only effect; inactive = flat fitted curve, though single readings scatter. A potency beside an inconclusive call is a rough fit, not a confirmed value.

The molecules below were run against Luciferin 4-monooxygenase (Photinus pyralis) (UniProt P08659) (assay: qHTS profiling assay for firefly luciferase inhibitor/activator using purifed enzyme and Km concentrations of substrates (counterscreen for miR-21 project)). Settings: purified FLuc, luminescence inhibition; activity change, negative = inhibition: at 57.5 µM (top of the series).
Chain of UniProt P08659 (P08659 whole entry, looked up): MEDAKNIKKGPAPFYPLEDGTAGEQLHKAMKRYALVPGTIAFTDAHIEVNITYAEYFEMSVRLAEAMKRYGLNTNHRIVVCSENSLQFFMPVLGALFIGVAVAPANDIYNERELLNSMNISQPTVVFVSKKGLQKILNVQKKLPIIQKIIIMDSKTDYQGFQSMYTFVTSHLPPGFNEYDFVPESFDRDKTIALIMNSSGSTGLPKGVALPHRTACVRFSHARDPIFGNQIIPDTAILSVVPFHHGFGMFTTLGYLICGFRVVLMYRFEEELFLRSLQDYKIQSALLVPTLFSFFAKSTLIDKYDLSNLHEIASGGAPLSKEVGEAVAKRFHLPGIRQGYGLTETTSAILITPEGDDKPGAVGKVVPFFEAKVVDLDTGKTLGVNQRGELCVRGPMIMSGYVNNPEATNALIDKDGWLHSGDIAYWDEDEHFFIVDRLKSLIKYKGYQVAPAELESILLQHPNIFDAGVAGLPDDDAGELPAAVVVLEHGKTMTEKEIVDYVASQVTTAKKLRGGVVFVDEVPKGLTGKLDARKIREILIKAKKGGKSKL
Procedure, shortened: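 Purified P. pyralis luciferase (10nM final) with 10uM D-luciferin and 10uM ATP (Km levels) in 50mM Tris acetate pH 7.5, 10mM Mg acetate, 0.01% Tween-20, 0.05% BSA; qHTS 6-point titration, ~60 µM downward; luminescence read.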
Note: nearly all actives have a fitted effect of over 55% in size.
Potency is the fitted concentration of half-maximal effect; tags give direction and shape of the fitted curve.
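Throughout, for activity change, negative = inhibition: plate controls were vehicle for no effect and reference inhibitor for full effect.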

| SMILES | Potency | activity change, negative = inhibition |
| --- | --- | --- |
| C/C(=N\NC(=O)c1ccc(O)cc1O)c1cccnc1 | active: 9.53 µM | – |
| O=C(NCCN1CCOCC1)C(=O)c1c[nH]c2ccccc12 | inconclusive: 26.9 µM [inhibitor, partial curve, poor fit] | – |
| Cc1c2cnn(-c3ccccc3)c(=O)c2c(C)n1CC(=O)NCCc1ccc(Cl)cc1 | – | inactive: 3.79% |
| COc1ccc2c(c1)c1c(c(=O)n(-c3ccc(F)c(Cl)c3)c(=O)n1CC(=O)N1CCCC1)n2C | – | inactive: 2.54% |
| O=C(OCCc1cc2ccccc2c(=O)o1)c1ccc(F)cc1 | inconclusive: 10.7 µM [inhibitor, single point] | – |
| CN1CCN(C(=O)C(=O)c2cn(CC(=O)N3CCCC3)c3ccccc23)CC1 | – | inactive: 4.17% |
| CCc1c(C)nc(SCC(=O)Nc2nc(-c3ccc(OC)cc3)cs2)[nH]c1=O | inconclusive: 9.53 µM [inhibitor, partial curve] | – |
| C=CCn1c(Cc2nc3ccc(Cl)cc3[nH]2)n[nH]c1=S | inconclusive: 30.1 µM [inhibitor, partial curve, poor fit] | – |
| Nc1c(C(=O)Nc2nc3ccccc3s2)sc2nc(-c3cccs3)ccc12 | active: 2.39 µM | – |
| COc1ccc(/C=C/C(=O)Oc2ccc(C)cc2)cc1 | active: 12 µM | – |
| Cc1ccc(S(=O)(=O)N2CCNC(=O)CC2)cc1 | – | inactive: 3.82% |
| Cc1nc2ccccc2nc1N1CCCC1 | inconclusive: 26.9 µM [inhibitor, single point] | – |
| Cc1cccc(/C=N/NC(=O)NC23CC4CC(CC(C4)C2)C3)n1 | inconclusive: 23.9 µM [inhibitor, single point] | – |
| Cc1ccc2[nH]c(-c3cccc(N)c3)cc2c1 | active: 4.78 µM | – |
| Cc1nc2cc(NC(=O)c3ccc(N4C(=O)CCC4=O)cc3)ccc2s1 | inconclusive: 23.9 µM [inhibitor, partial curve, poor fit] | – |
| COc1ccccc1N1CCN(/N=C/c2cccc(Cl)c2)CC1 | active: 12 µM | – |
| O=C(CCCN1C(=O)/C(=C/c2ccccc2Cl)SC1=S)NNC(=O)c1ccncc1 | active: 15.1 µM | – |
| Cc1cc(S(=O)(=O)NCC(c2ccc3c(c2)OCO3)N2CCOCC2)ccc1F (stereo not drawn) | inconclusive: 19 µM [inhibitor, partial curve, poor fit] | – |
| CN1CCc2c(sc3c2C(=O)NC(c2ccccc2)N3)C1 (stereo not drawn) | inconclusive: 21.3 µM [inhibitor, partial curve, poor fit] | – |
| CCOC(=O)c1c(NC(=O)c2cc(-c3cccc(O)c3)on2)sc(C(C)=O)c1C | inconclusive: 21.3 µM [inhibitor, partial curve, poor fit] | – |
| CCN(CC)S(=O)(=O)c1cccc(C(=O)N/N=C(\C)c2cccs2)c1 | active: 10.7 µM | – |
| OCCN1CCN(c2nc(-c3ccccc3O)nc3ccccc23)CC1 | – | inactive: -1.37% |
| Cc1ccn2c(Nc3ccc(C(C)C)cc3)c(-c3cccs3)nc2c1 | inconclusive: 12 µM [inhibitor, partial curve] | – |
| COc1ccc(C(=O)N/N=C(\C)CC(=O)Nc2ccc(N(C)C)cc2)c(OC)c1 | inconclusive: 37.9 µM [inhibitor, partial curve, poor fit] | – |
| CCOC(=O)C1=C(O)/C(=C/c2cn(CC(=O)N3CCCC3)c3ccccc23)SC1=Nc1ccccc1 | inconclusive: 3.01 µM [inhibitor, full curve] | – |

| SMILES | Potency | activity change, negative = inhibition |
| --- | --- | --- |
| Cc1ccnn1CCSCC(=O)O | – | inactive: 0.655% |
| Cc1nc2ccc(NC(=O)Cc3cccs3)cc2s1 | active: 7.57 µM | – |
| COc1ccc(-c2nnc(SCC(=O)Nc3cc(S(=O)(=O)N4CCCCC4)ccc3Cl)n2N)cc1 | inconclusive: 19 µM [inhibitor, partial curve, poor fit] | – |
| CC(OC(=O)CNC(=O)c1sc2ccccc2c1Cl)c1ccccc1 (stereo not drawn) | inconclusive: 30.1 µM [inhibitor, partial curve, poor fit] | – |
| Cc1nc2nc(NC(=O)c3ccccc3F)[nH]n2c(=O)c1Cl | inconclusive: 37.9 µM [inhibitor, partial curve, poor fit] | – |
| O=C(NNC1=NS(=O)(=O)c2ccccc21)c1ccc([N+](=O)[O-])cc1 | active: 1.51 µM | – |
| Cc1cccc(N2CCN(C(=O)C3CCN(S(=O)(=O)c4cccc5cccnc45)CC3)CC2C)c1 (stereo not drawn) | – | inactive: 2.18% |
| C/C(CC(=O)Nc1ccc2c(c1)OCCO2)=N\NC(=O)Cc1ccccc1 | inconclusive: 26.9 µM [inhibitor, partial curve, poor fit] | – |
| COc1ccc(OC)c(NC(=O)c2nc(-c3ccccc3)oc2C)c1 | – | inactive: 2.31% |
| CC(C)CC(=O)Nc1cccc(-c2csc(-c3ccccc3)n2)c1 | inconclusive: 16.9 µM [inhibitor, partial curve] | – |
| CCOc1ccc(-c2nc(CS(=O)(=O)CC(=O)NCc3ccc(F)cc3)c(C)o2)cc1 | inconclusive: 13.5 µM [inhibitor, partial curve] | – |
| COc1ccc(C2=NN(C3=NN=C(N)Cc4ncnn43)C(O)(C(F)(F)F)C2)cc1 (stereo not drawn) | – | inactive: -7.46% |
| Clc1ccc(-c2csc(N3CCOCC3)n2)cc1 | active: 10.7 µM | – |
| O=C(c1cc(COc2ccc3ncccc3c2)on1)N1CCCCCC1 | inconclusive: 21.3 µM [inhibitor, single point] | – |
| CC(NC(=O)c1ccccc1OC(F)F)c1ccc(-n2ccnc2)cc1 (stereo not drawn) | inconclusive: 30.1 µM [inhibitor, partial curve, poor fit] | – |
| CC(=O)Nc1ccc(N=C(C2=C(O)c3ccccc3C2=O)c2ccccc2)cc1 | inconclusive: 26.9 µM [inhibitor, partial curve, poor fit] | – |
| O=C(Nc1ccncc1)c1ccc(-c2ccccc2)cc1 | inconclusive: 2.13 µM [inhibitor, full curve] | – |
| O=C(NCCc1ccc(Cl)cc1)Nc1cccc(Cl)c1 | inconclusive: 30.1 µM [inhibitor, partial curve, poor fit] | – |
| CNc1oc(-c2ccccc2Cl)nc1C#N | inconclusive: 21.3 µM [inhibitor, single point] | – |
| O=C(NCc1cccs1)c1noc2c1CCCCC2 | inconclusive: 16.9 µM [inhibitor, partial curve] | – |
| CCN(c1ncnc2c1cnn2-c1ccc(C)cc1)C1CCCCC1 | active: 2.13 µM | – |
| COc1ccc(-c2cc(C(=O)N3CCCC(C(F)(F)F)C3)c3ccccc3n2)cc1OC (stereo not drawn) | inconclusive: 37.9 µM [inhibitor, partial curve, poor fit] | – |
| O=C(CCS(=O)(=O)c1ccccc1)NC1CCCC1 | inconclusive: 21.3 µM [inhibitor, single point] | – |
| CC(OC(=O)C1CC(=O)N(Cc2ccco2)C1)C(=O)Nc1cccc(C#N)c1 (stereo not drawn) | – | inactive: -1.06% |
| Oc1ccc(/C=N/Nc2ccnc3cc(Cl)ccc23)cc1O | active: 16.9 µM | – |

| SMILES | Potency | activity change, negative = inhibition |
| --- | --- | --- |
| CC(=O)O/N=C/c1c(C)c(C=O)n2ccccc12 | – | inactive: 3.99% |
| Cc1ccc(-c2cc(C(=O)N3CCCc4ccccc43)no2)cc1 | active: 4.26 µM | – |
| Cc1ccc(-n2ncc3c(=O)n(CC#N)cnc32)cc1C | inconclusive: 30.1 µM [inhibitor, partial curve, poor fit] | – |
| Cc1csc(NC(=O)c2cc3c(s2)CCCC3)n1 | active: 0.269 µM | – |
| O=C(Nc1ccccc1)O/N=C/c1ccccc1Cl | inconclusive: 37.9 µM [inhibitor, single point] | – |
| Cc1c(NCc2nc3ccccc3[nH]2)c(=O)n(-c2ccccc2)n1C | active: 15.1 µM | – |
| Fc1ccccc1N1CCN(c2cnc3ccccc3n2)CC1 | active: 2.13 µM | – |
| CCOC(=O)c1cnn(Cc2ccccc2)c1N | – | inactive: -3.6% |
| CC1CCN(S(=O)(=O)c2cccc(-c3cn4cc(Cl)ccc4n3)c2)CC1 | inconclusive: 12 µM [inhibitor, partial curve] | – |
| Cc1cc(C)n(-c2cc(N3CCN(C(=O)c4ccc(C(C)(C)C)cc4)CC3)ccc2[N+](=O)[O-])n1 | inconclusive: 23.9 µM [inhibitor, partial curve, poor fit] | – |
| O=C(CCNC(=O)c1ccccc1Cl)NCCCSc1ccccc1 | – | inactive: -1.64% |
| Cn1c(SCC(=O)N/N=C/c2ccc([N+](=O)[O-])s2)nnc1-c1ccc(Cl)cc1 | inconclusive: 37.9 µM [inhibitor, partial curve, poor fit] | – |
| CCN(CC)S(=O)(=O)c1ccc2nc(NC(=O)c3cccnc3)sc2c1 | active: 19 µM | – |
| COc1ccc(/C=N/NC(=O)CCc2nc3ccccc3[nH]2)cc1 | inconclusive: 26.9 µM [inhibitor, partial curve, poor fit] | – |
| COC(=O)c1ccc(NC(=O)c2ccc(C)cc2)o1 | active: 19 µM | – |
| CCOC(=O)c1cc(S(=O)(=O)NCc2ccccc2)[nH]n1 | – | inactive: -12.9% |
| O=C(NCCO)c1ccc2[nH]c3c(c2c1)CCCC3 | inconclusive: 19 µM [inhibitor, partial curve, poor fit] | – |
| CC1CCCCN1C(=O)C12CCC(C)(/C(=N/O)C1)C2(C)C (stereo not drawn) | – | inactive: 0.0553% |
| CCCC(=O)Nc1cc(C(=O)O)ccc1Sc1ccccc1 | inconclusive: 23.9 µM [inhibitor, partial curve, poor fit] | – |
| CCc1c(C)sc(NC(=O)c2noc(C)c2[N+](=O)[O-])c1C#N | active: 10.7 µM | – |
| Cc1c(Cl)cccc1NC(=O)c1cccc(OC(F)F)c1 | inconclusive: 30.1 µM [inhibitor, partial curve, poor fit] | – |
| Cc1ccc(-c2csc3nnc(SCC(=O)Nc4cccc(C)n4)n23)cc1 | inconclusive: 26.9 µM [inhibitor, single point] | – |
| CCOc1ccc2oc(-c3ccccc3)c(C(=O)O)c2c1 | inconclusive: 12 µM [inhibitor, partial curve] | – |
